Target: importin β (Impβ) (human, UniProt Q14974)
Experiment: pull-down

B1: His-tagged H1.0 globular domain (H1g, aas […]) (domain or fragment)
chain: not shown
binding result: binds

Source: article PMC6436938 (Molecular Cell, 2019)
